Experimental data from PubChem BioAssay AID1159614 (National Center for Advancing Translational Sciences (NCATS), 2016).
The whole screen tested about 45,000 compounds, of which about 65 (0.1%) were called active. The call rests on the fitted dose curve; in most records, active means well fitted activation curve with a large enough effect; inconclusive means small, poorly fitted or top-dose-only effect; inactive means no such curve, though single readings can be large or run the other way. This is one part of the list.

Target: Galactocerebrosidase (Homo sapiens) (UniProt P54803)
Chain of UniProt P54803 (P54803 whole entry, looked up): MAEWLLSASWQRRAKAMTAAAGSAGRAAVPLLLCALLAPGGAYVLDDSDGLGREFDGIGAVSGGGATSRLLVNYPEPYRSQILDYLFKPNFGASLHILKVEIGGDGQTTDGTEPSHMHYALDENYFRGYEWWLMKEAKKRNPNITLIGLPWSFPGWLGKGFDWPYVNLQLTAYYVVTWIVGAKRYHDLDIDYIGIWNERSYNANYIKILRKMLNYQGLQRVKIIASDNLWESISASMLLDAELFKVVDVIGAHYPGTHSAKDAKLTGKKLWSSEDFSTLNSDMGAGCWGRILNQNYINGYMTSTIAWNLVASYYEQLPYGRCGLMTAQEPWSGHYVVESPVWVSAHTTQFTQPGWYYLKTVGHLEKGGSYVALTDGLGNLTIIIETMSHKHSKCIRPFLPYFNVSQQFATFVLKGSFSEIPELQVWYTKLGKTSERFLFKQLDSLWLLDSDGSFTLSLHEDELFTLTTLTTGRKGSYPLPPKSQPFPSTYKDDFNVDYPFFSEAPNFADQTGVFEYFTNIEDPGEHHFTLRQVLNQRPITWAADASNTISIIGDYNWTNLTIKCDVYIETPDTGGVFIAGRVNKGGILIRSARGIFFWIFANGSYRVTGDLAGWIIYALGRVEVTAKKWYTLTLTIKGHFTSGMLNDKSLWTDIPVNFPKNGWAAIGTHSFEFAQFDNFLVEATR
Experiment: A Novel Cell-Based Assay to Identify Small Molecules for B -Galactocerebrosidase; further: 0% is about no effect; nearly all actives have a fitted effect of over 65% in size
Settings: 145M-Twi-hGALC-G270D cells (Twitcher mouse brain line with human GALC G270D), HMU-beta-Gal fluorescence, 48 h; series mostly up to 57.5 µM; activation: at the top concentration
In short: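 Live 145M-Twi cells (Twitcher mouse brain-derived, GALC-null) stably expressing human GALC-G270D, with a wild-type GALC line, were compound-treated. Residual GALC activity was then read as fluorescence from 0.1 mM final HMU-β-gal at pH 5.2; higher signal means activation.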

activation, inactive:
CCN(C(=O)Cn1nc(Cc2ccncc2)c2ccccc2c1=O)c1cccc(C(F)(F)F)c1 -4.81%
O=C(NCCc1ccccc1)c1ccc2c(c1)CCN2S(=O)(=O)c1ccccc1 -10.1%
Cc1ccc(S(=O)(=O)N2CCC(C(=O)Nc3ccc(Oc4ccccc4)cc3)CC2)cc1 -10.7%
CCN(c1cc(C)cc(C)c1)S(=O)(=O)c1nnc(NC(=O)c2ccco2)s1 -4.16%
COc1ccc(NC(=O)CCN2CCN(CCO)CC2)cc1 5.02%
CCOc1ccc(C(=O)Nc2ccc(-c3nc4ccccc4s3)c(C)c2)cc1OCC -0.738%
O=C(O)CCCCC(=O)O -14.8%
Cc1ccc(NC(=O)Cn2nnc(-c3nc(-c4ccc(Cl)cc4)no3)c2N)cc1C -2.32%
Cc1nc2c(C(=O)NCCc3ccccc3)c[nH]n2c(=O)c1Cc1ccc(F)cc1Cl -15.8%
Cc1cccc(N2CCN(C(=O)c3ccc(NC(=O)c4nsc5ccccc45)cc3)CC2)c1C -23%
COc1ccc2[nH]cc(CCNC(=O)c3cnn(-c4ccccc4Cl)c3C3CCN(C(=O)OC(C)(C)C)CC3)c2c1 -5.76%
Cc1ccccc1CNC(=O)c1ccc(CS(=O)Cc2ccc(Cl)cc2)o1 (stereo not drawn) -3.26%
COc1ccc(-n2c(=O)c3sc4ccccc4c3n(CC(=O)NCc3ccccc3)c2=O)cc1 -6.67%
CCCn1c(CCC(=O)Nc2cccc(CC)c2)nc2cccnc21 -8.29%
NC(=S)N/N=C/c1cccnc1 -11.5%
Cc1ccc2nc(N(Cc3cccnc3)C(=O)c3cccs3)sc2c1 -12.7%
CCOc1ccc(N2CC(c3nc4ccccc4n3Cc3cccc(C)c3)CC2=O)cc1 (stereo not drawn) -18.9%
O=[N+]([O-])c1cc(-c2nc(-c3ccccc3)no2)ccc1NCCc1ccccc1 -17.5%
Cc1ccc(OCC(=O)Nc2cc(-c3cccc(C)c3)nn2-c2ccccc2)cc1 -10.7%
CCc1nc2c(cnn2-c2ccc(Cl)cc2)c(=O)n1-c1ccc(OC)c(Cl)c1 -11.7%
Cc1ccc(CCNC(=O)c2ccc3c(c2)c(C)c(C)n3Cc2ccccc2)cc1 -0.742%
CCOc1ccccc1C(=O)Nc1cc2c(cc1N1CCOCC1)n(C)c(=O)n2C -16%
COc1ccc(Cl)cc1NC(=O)CSc1nc(-c2ccccc2)c2ccccc2n1 -11.3%
O=C(Nc1cccc(F)c1)[C@@H](c1ccccc1)N1Cc2ccccc2C1=O -7.03%
CCn1c(CC2C(=O)N(C)c3ccccc32)nc2ccccc2c1=O (stereo not drawn) -4.72%
CN(C)CCOC(c1ccccc1)c1ccccc1 -18.9%
CCOc1ccc(CNC(=O)C2CCN(Cc3cc4ccccc4n3Cc3ccccc3C)CC2)cc1 1.67%
CC(O)C(=O)O (stereo not drawn) -11.8%
CCCSc1nnc2n(-c3ccc(OC)cc3)c(=O)c3c4c(sc3n12)COC(C(C)C)C4 (stereo not drawn) -19.6%
CCc1ccc(NC(=O)CCCn2nc(C)c3c(C)n(-c4ccccc4)nc3c2=O)cc1 -11.2%
CC(C)CC(C(=O)NCCc1ccccc1)N1Cc2ccccc2C1=O (stereo not drawn) -2.37%
Cc1nn(C(C)(C)C)c(OC(=O)c2cccc(F)c2)c1Sc1ccccc1 -18.2%
CCc1ccc(CN(Cc2ccco2)C(=O)COc2ccc(Cl)cc2C)cc1 -47%
Cc1c(CNC2CCCCCC2)c(C(=O)O)c(C)n1Cc1ccc(F)cc1 -19.3%
Cc1cccc(NC(=O)C2(C)Cc3ccccc3C(=O)O2)c1 (stereo not drawn) -18.7%
Cc1ccc(NC(=O)C(=O)NCCCN2CCOCC2)cc1C -22.9%
CC(=O)Nc1ccc2nc(SCCOc3ccccc3)sc2c1 -15.1%
Clc1ccccc1-c1nnc(-c2ccccc2CNc2ccccc2)o1 -15.4%
COc1ccc(NC(=O)C2CCC(CNS(=O)(=O)c3cccs3)CC2)cc1OC (stereo not drawn) -10.2%
OC(CN1CCC(Cc2ccc(F)cc2)CC1)c1ccc(Cl)cc1 (stereo not drawn) -23.7%
CCn1nnc2cc(C(=O)Nc3cccc(C)c3C)ccc21 -10.7%
Cc1ccc(C)c(N2CCN(S(=O)(=O)c3csc(C(N)=O)c3)CC2)c1 -10.8%
COc1ccccc1CNC(=O)c1cc2ccc3ccc(C)[nH]c3c2n1 -28.7%
Cc1ccccc1CSCCNC(=O)CN(c1ccccc1)S(=O)(=O)N(C)C -25.7%
Cc1cccc(CC(=O)Nc2cccc(-c3nc4cccnc4s3)c2)c1 -11.1%
CCN1CCc2c(sc(-n3cccc3)c2C(C)NC(=O)Nc2ccccc2C)C1 (stereo not drawn) -4.96%
Cc1ccc(C)c(CSc2cn(CCNC(=O)c3ccccc3F)c3ccccc23)c1 1.09%
COc1cccc(C(C(=O)NCc2ccccc2)N(C(=O)Cn2nnc3ccccc32)c2cccc(C(C)=O)c2)c1 (stereo not drawn) -6.36%
Cc1cccc(Oc2ccc(NC(=O)CCC(=O)OCC(=O)c3ccc(Br)cc3)cc2)c1C -12.3%
COc1ccc(Cc2c(C)nn(-c3nc(C)c(C(=O)Nc4ccc(C)cc4C)s3)c2C)cc1 -22.6%
COc1cc(C2c3c(-c4ccccc4O)n[nH]c3C(=O)N2CCO)ccc1OCC(C)C (stereo not drawn) -15.3%
COc1ccc(NC(=O)c2oc3ccc(S(=O)(=O)N4CCC5(CC4)OCCO5)cc3c2C)cc1Cl -5.89%
Cc1ccc(NC(=O)Cn2nnc3sc4c(c3c2=O)CCCC4)c(C)c1 -16.1%
O=C(/C=C/c1ccc(Cl)cc1)Nc1nc(-c2cccs2)ns1 -0.496%
Cc1cc(C)c(Cn2c3ccccc3c3cnn(CC(=O)NCC(C)c4ccccc4)c(=O)c32)c(C)c1 (stereo not drawn) 2.67%
CCCCc1ccc(NC(=O)CSc2nnc3[nH]c(=O)cc(C)n23)cc1 -6.29%
CCN(CC)CCNC(=O)c1cc2c(=O)oc3ccc(C)cc3c2s1 -8.03%
CCCN(CCC)C(=O)CSc1nnc2cc(C)c3ccccc3n12 -5.47%
CCCN1CCN(CCCNC(=O)c2ccc(CS(=O)c3ccc(OC)cc3)o2)CC1 (stereo not drawn) -8.63%
COc1cc(OC)c(NC(=O)CCNS(=O)(=O)c2ccc3c(c2)oc(=O)n3C)cc1Cl -7.01%
CC(=O)N1CCCc2cc(S(=O)(=O)N(Cc3ccccc3)C(C)C)ccc21 -24.9%
COc1ccc(-n2c(CCC(=O)O)ccc2-c2ccccc2)c(OC)c1 -6.45%
CCn1cc(C(=O)NCc2ccc(F)cc2)c(=O)c2cc(S(=O)(=O)N(C)C)ccc21 -18.1%
COc1ccccc1N1CCN(S(=O)(=O)c2ccc(-c3cnc(C4CC4)o3)cc2)CC1 -13%
CC(C)CCNC(=O)c1cn(C)c2ccc(S(=O)(=O)N3CCOCC3)cc2c1=O -1.45%
Cc1ccc2occ(CC(=O)N3CCN(c4cccc(Cl)c4)CC3)c2c1 -14%
Cc1ccc(CNC(=O)CSC2=Nc3ccccc3C3=NC(C)C(=O)N23)cc1 (stereo not drawn) -25.2%
CCCN1CCN(CCCNC(=O)Cn2c(-c3cccs3)cc3cc(Cl)ccc32)CC1 -4.79%
Cc1cc(Cl)ccc1NC(=O)c1cc2ccccn2n1 -13.8%
CCOC(=O)c1ccccc1NC(=O)c1nn(C)c2c1COc1ccccc1-2 -10.8%
CC(=O)Nc1cccc(NC(=O)C(=O)NCCc2csc3nc(-c4ccccc4F)nn23)c1 -8.44%
CC(=O)c1cccc(NC(=O)c2nc(-c3ccccc3)n(-c3cccc(C)c3)n2)c1 -33.6%
CCC1CCCCN1Cc1cn2c(-c3ccc(Br)cc3)nnc2s1 (stereo not drawn) -6.89%
CCOc1ccccc1NC(=O)CN1CCN(S(=O)(=O)c2ccc(Br)cc2)CC1 -5.94%
CCC(C)NC(=O)CSc1nc2cc3c(cc2c(=O)n1CCCCCC(=O)NCc1ccc(OC)cc1)OCO3 (stereo not drawn) -7.92%
O=C(Nc1nc2n(n1)C(c1ccc(F)cc1)C=C(c1ccccc1)N2)c1cccc([N+](=O)[O-])c1 (stereo not drawn) -7.34%
COc1c(Cl)cc(Cl)cc1CNCCSc1nnnn1C -17.8%
COc1cc2c(cc1OC)C(COc1ccccc1OC)N(C(=O)c1ccccc1OC)CC2 (stereo not drawn) -16%
CCc1cccc(NC(=O)CCS(=O)(=O)c2cc3c4c(c2)CCN4C(=O)CC3)c1 -16%
Cc1c(Cl)cccc1-n1nc(C)c2c(C)cc(=O)n(CC(=O)NCc3ccccc3)c21 -29.6%
Cc1cccc(C(=O)Nc2cccc(OCc3cc(=O)n4ccccc4n3)c2)c1 -8.89%
COc1cc(OC)c(NC(=O)c2c3c(nc4ccccc24)C(=O)N(C2CCCCC2)C3)cc1Cl -3.16%
COc1cc2c(=O)c(S(=O)(=O)c3ccccc3)cn(CC(=O)Nc3ccccc3C)c2cc1OC -1.37%
Cc1cc(C)c(NC(=O)Cn2c(=O)n(Cc3ccccc3)c(=O)c3c(C)c(C(=O)N(C)C)sc32)c(C)c1 -11%
COc1ccc(C(=O)N2CCN(c3nc4c(C)c(Cl)ccc4s3)CC2)c(OC)c1 -5.95%
CCOc1ccc(NC(=O)CN(C)S(=O)(=O)c2ccc3[nH]c4c(c3c2)CCCC4)cc1 -12.4%
CCc1ccc(CNC(=O)c2ccc(CS(=O)(=O)Cc3cccc(C)c3)o2)cc1 -4.25%
O=C(NCc1ccc(Cl)cc1)c1ccc2c(c1)N(Cc1ccccc1F)C(=O)c1ccccc1S2=O (stereo not drawn) 4.27%
CCC(C(=O)NCCc1ccc(Cl)cc1)n1ccc2cc(S(=O)(=O)N3CCCCC3)ccc21 (stereo not drawn) -8.16%
COc1ccc(CCNC(=O)C(=O)NCC(c2cccnc2)N2CCN(c3ccccc3)CC2)cc1 (stereo not drawn) -7.37%
Cc1ccc(NC(=O)C2CCCN(S(=O)(=O)c3ccc4c(c3)CCCC(=O)N4)C2)cc1Cl (stereo not drawn) -47%
COc1ccc(N(C)C(=O)c2cc3c(s2)-c2ccccc2OC3)cc1 -6.57%
Cc1ccc(Cl)cc1N1CCN(C(=O)C2CCCN(Cc3nc(-c4cccc(Cl)c4)oc3C)C2)CC1 (stereo not drawn) -13.1%
CCCCNc1nc2c(c(=O)n(Cc3ccccc3)c(=O)n2C)n1C -3.97%
Cc1cc(C(=O)Nc2cccc(C)c2C)c2c(C)nn(-c3cccc(F)c3)c2n1 -10%
COc1cc(OC)c(OC)cc1/C=C/c1nc2ccccc2c(=O)n1-c1ccc(Br)c(C)c1 -10.5%
Cc1ccc(NC(=O)Cn2c(=O)ccc3cc(S(=O)(=O)N4CCCC4)ccc32)cc1N(C)C -7.48%
O=C(c1ccc(Cl)cc1)c1cn(Cc2ccccc2)c2cc3c(cc2c1=O)OCCO3 -12%
